# From PubChem BioAssay AID485344 (National Center for Advancing Translational Sciences (NCATS), 2010)
# In all, about 340,000 compounds went through this assay and about 6,900 (2%) were called active. No stated cut-off is given here; in the data, active means inhibition above about 30%; inactive means below that, where a call was filed. This is a selection; strong and weak results do not stand in their true shares. Entries without a call were filed so in the source.
# Target: D(2) dopamine receptor (Homo sapiens) (UniProt P14416)
# Test: HTS Assay for Allosteric Antagonists of the Human D2 Dopamine Receptor: Primary Screen for Antagonists; further: 0% is about no effect
# Details: HEK293 TREx D2 cells, calcium flux, dopamine EC80; at 10 µM; stronger effect = higher value
# Procedure, shortened: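 Calcium mobilization kinetics were recorded at 1 s intervals in tetracycline-induced HEK293 T-REx D2 cells, first for 180 s after compound addition and then 180 s after EC80 dopamine.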
# Chain of UniProt P14416 (P14416 whole entry, looked up): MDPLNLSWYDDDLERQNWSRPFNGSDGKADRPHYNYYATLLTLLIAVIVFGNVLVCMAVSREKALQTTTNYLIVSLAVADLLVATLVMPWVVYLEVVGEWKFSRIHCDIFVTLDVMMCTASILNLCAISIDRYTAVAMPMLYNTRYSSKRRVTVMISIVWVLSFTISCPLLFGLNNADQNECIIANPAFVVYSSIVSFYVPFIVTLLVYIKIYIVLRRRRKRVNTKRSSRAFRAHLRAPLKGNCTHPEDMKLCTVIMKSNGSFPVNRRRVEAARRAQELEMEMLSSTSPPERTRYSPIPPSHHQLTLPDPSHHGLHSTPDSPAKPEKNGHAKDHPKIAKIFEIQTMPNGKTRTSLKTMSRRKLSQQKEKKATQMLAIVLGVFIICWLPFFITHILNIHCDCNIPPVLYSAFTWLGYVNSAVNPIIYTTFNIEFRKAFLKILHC
row,Structure (SMILES),inhibition
1,Cc1ccc(-c2nc3cccc(C)n3c2Nc2ccc3c(c2)OCCO3)cc1,-5.22%
2,CCOCCCn1c(=N)c(C(=O)NC2CCCCC2)cc2c(=O)n3ccccc3nc21,0.804%
3,O=C(NCCS(=O)(=O)N1CCN(c2cccc(Cl)c2)CC1)C(c1ccccc1)c1ccccc1,-19.6%
4,Cc1ccc(Cl)cc1NC(=O)CN1C=NS(=O)(=O)c2ccccc21,-5.55%
5,CCc1ccc(S(=O)(=O)Nc2ccc3c(c2)sc(=O)n3C)cc1,-5.6%
6,CCc1nn(CCCC(=O)NCc2ccccc2OC)c(=O)c2cc3occc3n12,4.6%
7,Cc1cccc(Cn2c(=O)n(-c3cc(C)cc(C)c3)c(=O)c3oc4ccccc4c32)c1,3.35%
8,Cc1cc(C)c2c(n1)nn1c(C)c(CCC(=O)Nc3cccc(C)c3C)c(C)nc21,0.65%
9,Cc1ccc(Cl)cc1N1CCN(C(=O)C2CCN(S(=O)(=O)c3cn(C)cn3)CC2)CC1,11.6%
10,CC1CCN(CCCCOc2ccccc2-c2ccccc2)CC1,active: 83.8%
11,COc1ccc(CCNC(=O)c2ccc(Cn3c(=O)c4cccn4c4cccnc43)cc2)cc1OC,9.25%
12,Cc1cc(C(=O)N2CCN(c3ccccc3F)CC2)c2c(C)nn(-c3ccccc3)c2n1,0.489%
13,Cc1cc(C)n2nc(CNS(=O)(=O)c3cccc(Cl)c3)nc2n1,0.743%
14,CCC(C)NC(=O)c1ccc(CNS(=O)(=O)c2ccc3c(c2)C(C)(C)C(=O)N3C)cc1 (stereo not given),11.6%
15,Cc1cc(C)c2oc(-c3cccc(NC(=O)c4cccc(F)c4)c3C)nc2c1,-6.85%
16,Cc1cccc(NC(=O)CSc2nc(-c3cccs3)nc3cc(=O)[nH]n23)c1,5.03%
17,Cc1cccc(-c2nc3c4ccccc4nc(N4CCN(c5cccc(Cl)c5)CC4)n3n2)c1,-8.99%
18,COc1ccc(-c2c3c(nc4sc(C(=O)Nc5cccc(OC)c5)c(N)c24)CC(C)(C)CC3=O)cc1,-4.97%
19,CCc1ccccc1NC(=O)Cn1c(=O)n(CCc2ccccc2)c(=O)c2sc3ccccc3c21,0.907%
20,O=C(Nc1ccccc1Cl)N1CCC2(CC1)Oc1ccccc1C(=O)N2Cc1ccc(F)cc1,11.2%

row,Structure (SMILES),inhibition
1,O=C(Nc1ccc(Br)cc1)c1ccc2ncsc2c1,active: 36.2%
2,CC(=O)c1ccc(NC(=O)c2ccc(-c3nc(CSc4ccc(C)cc4)c(C)o3)cc2)cc1,-0.046%
3,CCc1ccc(NC(=O)c2cnc3c(-c4ccccc4)c(C)nn3c2C)cc1,1.83%
4,COc1cccc(Cn2c(C)c(CNCc3cccc(C)c3)c(C(=O)O)c2C)c1,-6.58%
5,COc1ccc(NC(=O)c2ccc(-c3ccccc3Cl)o2)cc1,active: 41.8%
6,COc1ccc(C2CC(=O)c3cc(-c4nc(-c5cccc([N+](=O)[O-])c5)cs4)c(=O)n(-c4cccc(C)c4)c3C2)cc1 (stereo not given),-0.488%
7,Cc1ccc(NC(=O)CSc2nc3ccc(NC(=O)c4ccco4)cc3s2)cc1,9.32%
8,Cc1ccc(NC(=O)CSc2nc(=O)n(Cc3ccccn3)c3c2CCC3)cc1F,-18.3%
9,COc1cc(C(=O)NCc2ccc3c(c2)CCN3C(=O)c2ccc(Cl)cc2)cc(OC)c1OC,17.3%
10,COC(=O)c1c(NC(=O)Cc2coc3cc(C)cc(C)c23)sc2c1CCC2,-0.974%
11,COCCNC(=O)c1c(NC(=O)c2cc(=O)c3cc(C)cc(C)c3o2)sc2c1CCCC2,-2.74%
12,Cc1ccc(S(=O)(=O)NC(=O)c2ccc(Br)o2)c(C)c1,active: 31.5%
13,Cc1ccc(C2NC(=O)c3n[nH]c(-c4cccs4)c32)cc1 (stereo not given),1.88%
14,Cc1ccc(Cl)cc1N1CCN(C(=O)Cn2nc(C)c3sc4ccccc4c3c2=O)CC1,-3.22%
15,O=C(Nc1cccc(C(=O)OCc2cc(=O)n3c4c(sc3n2)CCCC4)c1)c1cccc(F)c1,9.9%
16,CCC(C)NC(=O)CCSc1nc(-c2ccc3c(c2)OCO3)cc(C(F)(F)F)n1 (stereo not given),1.71%
17,COc1ccc(NC(=O)CCS(=O)(=O)c2nc(-c3ccc4c(c3)OCO4)cc(C(F)(F)F)n2)cc1OC,7.82%
18,COc1ccccc1CNC(=O)CCn1c(=O)c2ccccc2n(CC(=O)Nc2cc(Cl)ccc2C)c1=O,5.84%
19,CCc1cccc(NC(=O)CSc2ncc3c(n2)-c2cc(Cl)ccc2N(C)S3(=O)=O)c1,9.2%
20,CCOC(=O)c1ccc(N2C(=O)c3[nH]nc(-c4ccc(OC)cc4)c3C2c2cccc(O)c2)cc1 (stereo not given),18.1%

row,Structure (SMILES),inhibition
1,COc1ccccc1NC(=O)Cn1nnc(C(=O)NCc2cccs2)c1N,-8.14%
2,O=c1cc(COc2ccccc2Cl)nc2scc(-c3ccccc3)n12,-7.92%
3,O=C(Cn1nc(Cc2cccnc2)c2ccccc2c1=O)Nc1ccc(F)c(Cl)c1,8.01%
4,COc1cccc(CNC(=O)c2sc3ncccc3c2-n2c(C)ccc2C)c1OC,12.8%
5,COc1ccccc1C1CCN(Cc2cccc3ccccc23)CC1,active: 81.6%
6,COc1ccc(C(=O)NCC(c2ccc(Cl)cc2)N2CCCCC2)cc1 (stereo not given),-22.7%
7,NS(=O)(=O)c1ccc(CNC(=O)c2cccc(S(=O)(=O)N3CCc4ccccc43)c2)cc1,active: 41%
8,COc1ccccc1CNC(=O)Cn1nc(C)n2cccc2c1=O,-1.06%
9,O=C(Cn1cnc2onc(-c3ccc(F)cc3)c2c1=O)N1CCN(c2ccc(F)cc2)CC1,-3.55%
10,Clc1ccc(/C=N/Nc2nnc(-c3ncc[nH]3)c3ccccc23)cc1,active: 70.4%
11,COc1cc(OC)cc(C(=O)NC2CCN(CCCOc3ccccc3)CC2)c1,active: 46.9%
12,COc1cccc(C2C(C(=O)Nc3ccccc3OC)=C(C)Nc3nc(-c4ccco4)nn32)c1 (stereo not given),-4.64%
13,COc1ccccc1CNC(=O)c1cnc2sc(N3CCCCC3)nn2c1=O,10.8%
14,Cc1ccccc1-c1nc(CS(=O)(=O)CC(=O)NCCCc2ccccc2)c(C)o1,-4.71%
15,CCC(Sc1nnc2c3ccccc3n(CC)c2n1)C(=O)Nc1ccc(NC(C)=O)cc1 (stereo not given),-3.22%
16,COc1ccc(-n2nc(C(=O)NCCc3ccc(OC)c(OC)c3)c3c4ccccc4n(C)c3c2=O)cc1,19.4%
17,CCCOc1cccc(C2c3c(oc4ccc(F)cc4c3=O)C(=O)N2CCc2ccc(OC)cc2)c1 (stereo not given),-2.72%
18,O=C(Nc1onc2c1CCCC2)c1ccccc1,-10.9%
19,O=C(CN1C(=O)CCn2nc(-c3ccccc3)cc21)NCc1ccccc1,3.03%
20,COc1cccc(CNC(=O)C(=O)NCC(c2ccco2)S(=O)(=O)c2ccccc2)c1 (stereo not given),13.2%
